From the supplement of paper PMC4604168 (melanoma cell lines)
This is one part of the list. Many values rest on one well or one pass, so single values are uncertain.

Tests used:
Test in all cases: cell count relative to DMSO control; melanoma cells; higher = more viable cells
Conditions in all cases: library dose: standard library concentration; 72 h
G361 = tested on: G361
IPC-298 = tested on: IPC-298
IST-MEL1 = tested on: IST-MEL1
LB2518-MEL = tested on: LB2518-MEL
LOXIMVI = tested on: LOXIMVI
MEL-HO = tested on: MEL-HO
MZ2-MEL = tested on: MZ2-MEL
MeWo = tested on: MeWo
RPMI7951 = tested on: RPMI7951
RVH-421 = tested on: RVH-421
SkMel28 = tested on: SkMel28
SkMel2 = tested on: SkMel2
SkMel30 = tested on: SkMel30
SkMel5 = tested on: SkMel5
UACC257 = tested on: UACC257
UACC62 = tested on: UACC62
WM115 = tested on: WM115
WM1716 = tested on: WM1716
WM1745 = tested on: WM1745
WM3526 = tested on: WM3526
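Note: cells treated in 1,536-well plates, then fixed and DAPI-stained, with nuclei counted from automated high-throughput microscope images.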

| SMILES | cell count (G361) [%] | cell count (IPC-298) [%] | cell count (IST-MEL1) [%] | cell count (LB2518-MEL) [%] | cell count (LOXIMVI) [%] | cell count (MEL-HO) [%] | cell count (MZ2-MEL) [%] | cell count (MeWo) [%] | cell count (RPMI7951) [%] | cell count (RVH-421) [%] | cell count (SkMel28) [%] | cell count (SkMel2) [%] | cell count (SkMel30) [%] | cell count (SkMel5) [%] | cell count (UACC257) [%] | cell count (UACC62) [%] | cell count (WM115) [%] | cell count (WM1716) [%] | cell count (WM1745) [%] | cell count (WM3526) [%] |
| --- | --- | --- | --- | --- | --- | --- | --- | --- | --- | --- | --- | --- | --- | --- | --- | --- | --- | --- | --- | --- |
| NC(=O)c1ccc(N(C(N)=O)c2c(F)cccc2F)nc1-c1ccc(F)cc1F + Nc1cccc2c1CN(C1CCC(=O)NC1=O)C2=O [lenalidomide] (first compound 2 µM, partner dose 5 µM) | 98.8 | 93.2 | 86.8 | 82.4 | 72 | 98 | 92.2 | 101 | 93.1 | 91.6 | 88.6 | 114 | 123 | 111 | 92.1 | 79.6 | 73.9 | 99.9 | 88.6 | 94.8 |
| CC(C)(C)c1cnc(CSc2cnc(NC(=O)C3CCNCC3)s2)o1 + Cn1cncc1[C@@](N)(c1ccc(Cl)cc1)c1ccc2c(c1)c(-c1cccc(Cl)c1)cc(=O)n2C [tipifarnib] (first compound 0.05 µM, partner dose 0.05 µM) | 75.6 | 90.9 | 84.5 | 57.5 | 49.7 | 86.7 | 73.7 | 76.1 | 13.4 | 78.4 | 35.7 | 51.4 | 75.3 | 53.7 | 81.4 | 60.9 | 64.3 | 48 | 51.9 | 67.8 |
| NC(=O)c1ccc(N(C(N)=O)c2c(F)cccc2F)nc1-c1ccc(F)cc1F + Nc1ncn([C@H]2C[C@H](O)[C@@H](CO)O2)c(=O)n1 [decitabine] (first compound 2 µM, partner dose 0.5 µM) | 73.7 | 56.2 | 76.7 | 75.8 | 79.3 | 80 | 80.7 | 58.8 | 68.9 | 76.8 | 87.6 | 116 | 114 | 60.4 | 96.4 | 61.9 | 63.7 | 87.1 | 83 | 102 |
| CC(C)(C)c1cnc(CSc2cnc(NC(=O)C3CCNCC3)s2)o1 + NCC(=O)Nc1ccc(-n2nc(C(F)(F)F)cc2-c2ccc3c(ccc4ccccc43)c2)cc1 [OSU03012] (first compound 0.05 µM, partner dose 5 µM) | 76 | 62.8 | 81.3 | 72.6 | 57.5 | 75.9 | 88.3 | 90.4 | 23.9 | 84.6 | 19.6 | 44.2 | 37 | 45.7 | 58.1 | 36.6 | 80.7 | 80.2 | 70.6 | 55.6 |
| CCCCCCCCc1ccc(CCC(N)(CO)CO)cc1 [fingolimod] + Cn1nnc2c(C(N)=O)ncn2c1=O [temozolomide] (first compound 10 µM, partner dose 10 µM) | 1.39 | 73.8 | 5 | 44.5 | 42.5 | 9.14 | 64.5 | 70.7 | 1.55 | 21.3 | 8.66 | 55 | 34.6 | 77.9 | 77.9 | 41.4 | 35 | 43.7 | 12.1 | 67.4 |
| CN(NC(=O)CC(=O)NN(C)C(=S)c1ccccc1)C(=S)c1ccccc1 + COc1ccc2c(c1)CCC1C2CCC2(C)C(NCCCCCCN3C(=O)C=CC3=O)CCC12 [U73122] (first compound 0.03 µM, partner dose 2 µM) | 77.5 | 100 | 104 | 100 | 82.9 | 97.5 | 94.3 | 78.9 | 73.4 | 130 | 110 | 109 | 106 | 105 | 102 | 85.6 | 85 | 59.2 | 92.2 | 85.7 |
| CC(C)(C)c1cnc(CSc2cnc(NC(=O)C3CCNCC3)s2)o1 + COc1cc2c(Oc3ccc4[nH]c(C)cc4c3F)ncnc2cc1OCCCN1CCCC1 [cediranib] (first compound 0.05 µM, partner dose 2 µM) | 108 | 118 | 89.1 | 88.9 | 53.7 | 99.6 | 89.2 | 74.8 | 9.06 | 66.6 | 56.7 | 70.3 | 88.7 | 68.8 | 87 | 48.8 | 59.6 | 72.5 | 57.7 | 84.1 |
| NC(=O)c1ccc(N(C(N)=O)c2c(F)cccc2F)nc1-c1ccc(F)cc1F + NC1(c2ccc(-c3nc4ccn5c(=O)[nH]nc5c4cc3-c3ccccc3)cc2)CCC1 [MK2206] (first compound 2 µM, partner dose 2 µM) | 90.3 | 98 | 105 | 96 | 74.4 | 88.4 | 123 | 86.7 | 86.4 | 74.1 | 41.7 | 79.2 | 95.6 | 70.7 | 90.4 | 64.3 | 69.2 | 71.6 | 90.9 | 57.2 |
| NC(=O)c1ccc(N(C(N)=O)c2c(F)cccc2F)nc1-c1ccc(F)cc1F + C[C@@H](Oc1cc(-c2cnn(C3CCNCC3)c2)cnc1N)c1c(Cl)ccc(F)c1Cl [Crizotinib] (first compound 2 µM, partner dose 1 µM) | 78 | 99.8 | 101 | 76 | 127 | 104 | 92.9 | 91.7 | 98.1 | 85.1 | 75.2 | 77.8 | 92.8 | 75.7 | 89.4 | 74.7 | 64.2 | 92.4 | 61.1 | 84.5 |
